pIC50: −log10 of the molar value. By IC50 is meant the dose at which the fit gives 50% viability; fits outside the tested doses are given as limits. AUC is the area under the same curve over the 256-fold range up to the top dose, as a fraction; it is 1 without any effect and falls as sensitivity rises. For part of these data: Any top dose called inferred is not printed in the source and was worked back from the curve model. For part of these data: An entry number marks a drug with two screens in the source, which often give different values.
Columns and labels:
Assay in all cases: Viability of human cancer cell lines after 72 h of drug (GDSC screen)
CHIR-99021 = compound: Cc1cnc(-c2cnc(NCCNc3ccc(C#N)cn3)nc2-c2ccc(Cl)cc2Cl)[nH]1 [CHIR-99021]
Description: (§1)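 Human cancer cell lines in 384-well plates, medium with 10% serum, drug for 72 h over a 256-fold dose range (nine 2-fold or five 4-fold steps up to the top dose). Adherent lines were fixed and stained with the nucleic acid dye Syto60, suspension lines read with resazurin; signal relative to control wells, capped at 0 and 100%. One two-parameter sigmoid per drug and line, fitted in a mixed model over all curves with the slope shared within a line.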

CP466722 = compound: COc1cc2ncnc(-n3nc(-c4ccccn4)nc3N)c2cc1OC [CP466722]; settings: top dose 16 µM; top dose inferred
Description: as §1

Zibotentan = compound: COc1nc(C)cnc1NS(=O)(=O)c1cccnc1-c1ccc(-c2nnco2)cc1 [Zibotentan]; settings: top dose 20 µM; top dose inferred
Description: as §1

Thapsigargin = compound: C/C=C(/C)C(=O)O[C@H]1C(C)=C2[C@H]([C@@H]1OC(=O)CCCCCCC)[C@@](C)(OC(C)=O)C[C@H](OC(=O)CCC)[C@@]1(O)[C@H]2OC(=O)[C@@]1(C)O [Thapsigargin]; settings: top dose 0.512 µM; top dose inferred
Description: as §1

ABT-869 = compound: Cc1ccc(F)c(NC(=O)Nc2ccc(-c3cccc4[nH]nc(N)c34)cc2)c1 [ABT-869]; settings: top dose 1.024 µM; top dose inferred
Description: as §1

ABT-888 = compound: C[C@]1(c2nc3c(C(N)=O)cccc3[nH]2)CCCN1 [ABT-888]; settings: top dose 5 µM; top dose inferred
Description: as §1

GSK269962A = compound: CCn1c(-c2nonc2N)nc2cnc(Oc3cccc(NC(=O)c4ccc(OCCN5CCOCC5)cc4)c3)cc21 [GSK269962A]; settings: top dose inferred
Description: as §1

QL-X-138 = compound: C=CC(=O)Nc1cc(-n2c(=O)ccc3cnc4ccc(-c5cn[nH]c5)cc4c32)ccc1C [QL-X-138]; settings: top dose 10.24 µM; top dose inferred
Description: as §1

Cytarabine = compound: Nc1ccn([C@@H]2O[C@H](CO)[C@@H](O)[C@@H]2O)c(=O)n1 [Cytarabine]; settings: top dose 2 µM
Description: as §1

MPS-1-IN-1 = compound: COc1cc(N2CCC(O)CC2)ccc1Nc1cc(Nc2ccccc2S(=O)(=O)C(C)C)c2cc[nH]c2n1 [MPS-1-IN-1]; settings: top dose 20 µM; top dose inferred
Description: as §1

CMK = compound: Cc1ccc(-c2c(C(=O)CCl)n(CCCO)c3ncnc(N)c23)cc1 [CMK]; settings: top dose 4 µM; top dose inferred
Description: as §1

KU-55933 = compound: O=c1cc(-c2cccc3c2Sc2ccccc2S3)oc(N2CCOCC2)c1 [KU-55933]; settings: top dose 10 µM
Description: as §1

(5Z)-7-Oxozeaenol = compound: COc1cc(O)c2c(c1)/C=C/C[C@H](O)[C@H](O)C(=O)/C=C\C[C@H](C)OC2=O [(5Z)-7-Oxozeaenol]; settings: top dose 10 µM; top dose inferred
Description: as §1

[1] = top dose 2.56 µM, screen: GDSC drug entry 154
[2] = top dose 10 µM, screen: GDSC drug entry 1241, top dose inferred
[3] = top dose 2.5 µM, screen: GDSC drug entry 127
[4] = top dose 5 µM, screen: GDSC drug entry 1192

Row | Cell Line | AUC (CHIR-99021; [1]) | pIC50 (CHIR-99021; [1]) | AUC (CHIR-99021; [2]) | pIC50 (CHIR-99021; [2]) | AUC (CP466722) | pIC50 (CP466722) | AUC (Zibotentan) | pIC50 (Zibotentan) | AUC (Thapsigargin) | pIC50 (Thapsigargin) | AUC (ABT-869) | pIC50 (ABT-869) | AUC (ABT-888) | pIC50 (ABT-888) | AUC (GSK269962A; [3]) | pIC50 (GSK269962A; [3]) | AUC (GSK269962A; [4]) | pIC50 (GSK269962A; [4]) | AUC (QL-X-138) | pIC50 (QL-X-138) | AUC (Cytarabine) | pIC50 (Cytarabine) | AUC (MPS-1-IN-1) | pIC50 (MPS-1-IN-1) | AUC (CMK) | pIC50 (CMK) | AUC (KU-55933) | pIC50 (KU-55933) | AUC ((5Z)-7-Oxozeaenol) | pIC50 ((5Z)-7-Oxozeaenol)
1 | MS-1 (small cell lung carcinoma, suspension) | 0.991 | < 5.59 | 0.991 | < 5.00 | 0.85 | 4.99 | 0.991 | < 4.70 | 0.435 | 7.66 | 0.988 | < 5.99 | 0.989 | < 5.30 | 0.991 | < 5.60 | 0.967 | < 5.30 | 0.742 | 5.54 | 0.97 | < 5.70 | 0.756 | 5.21 | 0.918 | < 5.40 | 0.965 | < 5.00 | 0.808 | 5.34
2 | MZ1-PC (pancreas, adherent) | 0.955 | < 5.59 | 0.916 | < 5.00 | 0.682 | 5.43 | 0.969 | < 4.70 | 0.165 | 8.65 | 0.981 | < 5.99 | 0.981 | < 5.30 | 0.981 | < 5.60 | 0.957 | < 5.30 | 0.721 | 5.49 | 0.824 | 5.80 | 0.686 | 5.32 | 0.826 | 5.49 | 0.961 | < 5.00 | 0.679 | 5.65
3 | MZ2-MEL (melanoma, adherent) | 0.902 | < 5.59 | 0.921 | < 5.00 | 0.676 | 5.47 | 0.978 | < 4.70 | 0.236 | 8.33 | 0.962 | < 5.99 | 0.952 | < 5.30 | 0.966 | < 5.60 | 0.937 | < 5.30 | 0.479 | 6.25 | 0.42 | 7.14 | 0.783 | 5.00 | 0.92 | < 5.40 | 0.934 | < 5.00 | 0.593 | 5.93
4 | Mo-T (hairy cell leukaemia, suspension) | 0.987 | < 5.59 | 0.979 | < 5.00 | 0.763 | 5.23 | 0.986 | < 4.70 | 0.818 | 6.53 | 0.986 | < 5.99 | 0.972 | < 5.30 | 0.987 | < 5.60 | 0.945 | < 5.30 | 0.732 | 5.53 | 0.71 | 6.30 | 0.9 | < 4.70 | 0.981 | < 5.40 | 0.881 | < 5.00 | 0.731 | 5.54
5 | NB5 (neuroblastoma, adherent) | 0.987 | < 5.59 | 0.857 | 5.08 | 0.893 | < 4.80 | 0.982 | < 4.70 | 0.618 | 7.17 | 0.985 | < 5.99 | 0.981 | < 5.30 | 0.987 | < 5.60 | 0.881 | < 5.30 | 0.793 | 5.32 | 0.706 | 6.32 | 0.873 | 4.71 | 0.856 | 5.48 | 0.965 | < 5.00 | 0.465 | 6.30
6 | NB6 (neuroblastoma, adherent) | 0.958 | < 5.59 | 0.978 | < 5.00 | 0.822 | 4.91 | 0.98 | < 4.70 | 0.305 | 8.10 | 0.981 | < 5.99 | 0.982 | < 5.30 | 0.66 | 6.32 | 0.964 | < 5.30 | 0.641 | 5.76 | 0.929 | < 5.70 | 0.925 | < 4.70 | 0.853 | < 5.40 | 0.984 | < 5.00 | 0.967 | < 5.00
7 | NB10 (neuroblastoma, adherent) | 0.984 | < 5.59 | 0.917 | < 5.00 | 0.916 | < 4.80 | 0.987 | < 4.70 | 0.632 | 7.13 | 0.985 | < 5.99 | 0.978 | < 5.30 | 0.517 | 6.76 | 0.862 | 5.39 | 0.869 | 5.04 | 0.53 | 6.82 | 0.832 | 4.91 | 0.986 | < 5.40 | 0.986 | < 5.00 | 0.455 | 6.32
8 | NB13 (neuroblastoma, adherent) | 0.99 | < 5.59 | 0.846 | 5.22 | 0.921 | < 4.80 | 0.99 | < 4.70 | 0.237 | 8.21 | 0.989 | < 5.99 | 0.989 | < 5.30 | 0.872 | 5.71 | 0.902 | < 5.30 | 0.758 | 5.50 | 0.954 | < 5.70 | 0.754 | 5.22 | 0.726 | 6.00 | 0.966 | < 5.00 | 0.793 | 5.40

From the supplement of paper PMC4967469
